Assay results taken from PubChem BioAssay AID485297 (National Center for Advancing Translational Sciences (NCATS), 2010).
Hit rate of the full screen: of about 320,000 compounds, about 9,100 (2.8%) were called active. The inconclusive results got no clear call from the source; some entries with a clear call stand among them for comparison. Calls follow the shape of the dose curve; as a rule, active = well fitted activation curve with a large enough effect; inconclusive = small, poorly fitted or top-dose-only effect; inactive = no such curve, though single readings can be large or run the other way. No potency is given beside an inconclusive call; the fits are too rough.

Assay: qHTS Assay for Rab9 Promoter Activators; also: nearly all actives have a fitted effect of over 60% in size
Conditions: Huh7 Rab9 promoter-luciferase reporter, luminescence, 24 h; series mostly up to 9.22 µM
Method in brief: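 Luminescence read-out: Huh7 cells stably expressing Rab9-luciferase, treated 24 h with compound at 37 °C, then lysed with luciferase reagent for 10 min at ambient before reading.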
Potency is read from the fitted curve at half-maximal effect; tags tell the direction and shape of the fitted curve.

Question: With Cc1ccc(S(=O)(=O)Nc2ccc(NC(=O)CN3CCCCC3)c(Cl)c2)cc1 as the compound, how does the Potency read?
Answer: Its Potency is “inactive”.

Question: With N/C(=N\OC(=O)c1ccc(Cl)cc1[N+](=O)[O-])c1cccnc1 as the compound, how does the Potency read?
Answer: The Potency was inconclusive [activator, single point].

Question: For CSCc1ccc(C(=O)NCCSc2ccc(Br)cc2)cc1, which Potency is on record?
Answer: Its Potency is inconclusive [activator, partial curve].

Question: For Cc1ccc(CNC(=O)C2COc3ccccc3O2)cc1 (stereo not drawn), which Potency is on record?
Answer: Its Potency is inconclusive [activator, partial curve].

Question: Which Potency does the source give for COc1ccccc1CNC(=O)c1csc(Cc2ccc(Cl)cc2)n1 here?
Answer: Its Potency is “inactive”.

Question: Which Potency does the source give for COc1ccccc1C(=O)N/N=C/c1ccc2c(c1)OCO2 here?
Answer: The Potency was inconclusive [activator, single point].

Question: Which Potency does the source give for COc1cc(NC(=O)CN2CCN(Cc3ccc4c(c3)OCO4)CC2)cc(OC)c1 here?
Answer: Its Potency is “inactive”.

Question: With CCOc1ccc(S(=O)(=O)N2CCc3cc(OC)c(OC)cc3C2)cc1 as the compound, how does the Potency read?
Answer: The Potency was “inactive”.

Question: Which Potency does the source give for Cn1c(CC(=O)NNC(=O)c2cccnc2)nc2ccccc21 here?
Answer: The Potency was “inactive”.

Question: With COc1ccc(/C=C/C(=O)O/N=C(\N)c2cccnc2)cc1OC as the compound, how does the Potency read?
Answer: Its Potency is “inactive”.

Question: Which Potency does the source give for Nc1ccc2oc(C3CCCCC3)nc2c1 here?
Answer: Its Potency is inconclusive [activator, partial curve].

Question: For Cc1cccc(C)c1NC(=O)CNC(=O)C(C)N(C)CC(=O)Nc1ccc(F)cc1 (stereo not drawn), which Potency is on record?
Answer: The Potency was “inactive”.

Question: With N/C(=N\OC(=O)c1ccc(Br)cc1)c1ccccc1 as the compound, how does the Potency read?
Answer: The Potency was active: 2.82 µM.

Question: With COc1cccc(/C=C/c2ccc3cccc(O)c3n2)c1OC as the compound, how does the Potency read?
Answer: Its Potency is inconclusive [activator, single point].

Question: With O=C(Nc1ccccc1C(=O)O)c1ccc(Br)o1 as the compound, how does the Potency read?
Answer: The Potency was inconclusive [activator, partial curve].

Question: With COc1ccc(NC(=O)c2ccc3[nH]c(C)c(C)c3c2)cc1 as the compound, how does the Potency read?
Answer: The Potency was inconclusive [activator, single point].

Question: With Cc1ccc(S(=O)(=O)N2CCN(Cc3csc(C)n3)CC2)cc1 as the compound, how does the Potency read?
Answer: Its Potency is “inactive”.

Question: Which Potency does the source give for O=c1c2ccccc2nc(SCc2nc3ccccc3s2)n1CCCO here?
Answer: The Potency was active: 2.82 µM.

Question: With COc1ccc(C(=O)NCCC2=CCCCC2)cc1 as the compound, how does the Potency read?
Answer: The Potency was active: 0.316 µM.

Question: For O=C(C1COc2ccccc2O1)N1CCc2ccccc21 (stereo not drawn), which Potency is on record?
Answer: Its Potency is active: 3.55 µM.

Question: Which Potency does the source give for Cc1ccc(C(=O)Nc2ccc3c(c2)OCCO3)o1 here?
Answer: Its Potency is inconclusive [activator, full curve].

Question: Which Potency does the source give for CN(C)c1ccc(/C=C2/NC(=O)NC2=O)cc1 here?
Answer: Its Potency is inconclusive [activator, single point].

Question: Which Potency does the source give for CCC(C)(C)C1CCc2[nH]nc(C(=O)NC3CCCCC3)c2C1 (stereo not drawn) here?
Answer: Its Potency is inconclusive [activator, partial curve].
